# From the supplement of paper PMC8728848
# The other results are listed elsewhere or left out.
# What was measured:
# Test in all cases: glycan array binding signal (z-score within array); higher = stronger binding
# Conditions in all cases: glycan notation: IUPAC condensed, linker removed
# [1] = biological target: Neu5Ac(a2-3)Gal(b1-3)[Fuc(a1-4)]GlcNAc(b1-3)Gal(b1-3)[Fuc(a1-4)]GlcNAc
# Procedure, shortened: (§1)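 Glycan array data were curated from 3228 arrays in the Consortium for Functional Glycomics database and kept only where the protein sequence was available. Glycan names were converted to IUPAC-condensed notation, and columns mapping to the same glycan were averaged. The binding signal is a within-array Z-score, averaged across arrays of the same protein sequence at different concentrations or buffers and across linkers. Negative Z-scores can be read as non-binding.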
# [2] = biological target: Neu5Ac(a2-3)Gal(b1-3)[Fuc(a1-4)]GlcNAc(b1-3)Gal(b1-4)[Fuc(a1-3)]GlcNAc
# Procedure, shortened: as §1
# [3] = biological target: Neu5Ac(a2-3)Gal(b1-3)[GlcNAc(b1-6)]GalNAc
# Procedure, shortened: as §1
# [4] = biological target: Neu5Ac(a2-3)Gal(b1-3)[Neu5Ac(a2-3)Gal(b1-4)]GlcNAc
# Procedure, shortened: as §1
# [5] = biological target: Neu5Ac(a2-3)Gal(b1-3)[Neu5Ac(a2-6)]GalNAc
# Procedure, shortened: as §1
# [6] = biological target: Neu5Ac(a2-3)Gal(b1-3)[Neu5Ac(a2-6)]GlcNAc(b1-3)[Fuc(a1-3)[Gal(b1-4)]GlcNAc(b1-6)]Gal(b1-4)Glc
# Procedure, shortened: as §1
# [7] = biological target: Neu5Ac(a2-3)Gal(b1-3)]Neu5Ac(a2-3)Gal(b1-4)]GlcNAc
# Procedure, shortened: as §1
# [8] = biological target: Neu5Ac(a2-3)Gal(b1-4)Glc
# Procedure, shortened: as §1
# [9] = biological target: Neu5Ac(a2-3)Gal(b1-4)GlcNAc
# Procedure, shortened: as §1
# [10] = biological target: Neu5Ac(a2-3)Gal(b1-4)GlcNAc(b1-2)Man
# Procedure, shortened: as §1
# [11] = biological target: Neu5Ac(a2-3)Gal(b1-4)GlcNAc(b1-2)Man(a1-3)[GlcNAc(b1-4)][Neu5Ac(a2-3)Gal(b1-4)GlcNAc(b1-2)Man(a1-6)]Man(b1-4)GlcNAc(b1-4)GlcNAc
# Procedure, shortened: as §1
# [12] = biological target: Neu5Ac(a2-3)Gal(b1-4)GlcNAc(b1-2)Man(a1-3)[Neu5Ac(a2-3)Gal(b1-4)GlcNAc(b1-2)Man(a1-6)]Man(b1-4)GlcNAc(b1-4)GlcNAc
# Procedure, shortened: as §1
# [13] = biological target: Neu5Ac(a2-3)Gal(b1-4)GlcNAc(b1-2)Man(a1-3)[Neu5Ac(a2-3)Gal(b1-4)GlcNAc(b1-2)Man(a1-6)]Man(b1-4)GlcNAc(b1-4)[Fuc(a1-6)]GlcNAc
# Procedure, shortened: as §1
# [14] = biological target: Neu5Ac(a2-3)Gal(b1-4)GlcNAc(b1-2)Man(a1-3)[Neu5Ac(a2-6)Gal(b1-4)GlcNAc(b1-2)Man(a1-6)]Man(b1-4)GlcNAc(b1-4)GlcNAc
# Procedure, shortened: as §1
# [15] = biological target: Neu5Ac(a2-3)Gal(b1-4)GlcNAc(b1-2)[Neu5Ac(a2-3)Gal(b1-4)GlcNAc(b1-4)]Man(a1-3)[GlcNAc(b1-4)][Neu5Ac(a2-3)Gal(b1-4)GlcNAc(b1-2)[Neu5Ac(a2-3)Gal(b1-4)GlcNAc(b1-6)]Man(a1-6)]Man(b1-4)GlcNAc(b1-4)GlcNAc
# Procedure, shortened: as §1
# [16] = biological target: Neu5Ac(a2-3)Gal(b1-4)GlcNAc(b1-2)[Neu5Ac(a2-3)Gal(b1-4)GlcNAc(b1-4)]Man(a1-3)[GlcNAc(b1-4)][Neu5Ac(a2-3)Gal(b1-4)GlcNAc(b1-4)Man(a1-6)]Man(b1-4)GlcNAc(b1-4)GlcNAc
# Procedure, shortened: as §1
# [17] = biological target: Neu5Ac(a2-3)Gal(b1-4)GlcNAc(b1-2)[Neu5Ac(a2-3)Gal(b1-4)GlcNAc(b1-6)]Man(a1-6)[Neu5Ac(a2-3)Gal(b1-4)GlcNAc(b1-2)Man(a1-3)]Man(b1-4)GlcNAc(b1-4)GlcNAc
# Procedure, shortened: as §1
# [18] = biological target: Neu5Ac(a2-3)Gal(b1-4)GlcNAc(b1-2)[Neu5Ac(a2-3)Gal(b1-4)GlcNAc(b1-6)]Man(a1-6)[Neu5Ac(a2-3)Gal(b1-4)GlcNAc(b1-2)Man(a1-3)][GlcNAc(b1-4)]Man(b1-4)GlcNAc(b1-4)GlcNAc
# Procedure, shortened: as §1
# [19] = biological target: Neu5Ac(a2-3)Gal(b1-4)GlcNAc(b1-3)Gal
# Procedure, shortened: as §1
# [20] = biological target: Neu5Ac(a2-3)Gal(b1-4)GlcNAc(b1-3)Gal(b1-3)GlcNAc
# Procedure, shortened: as §1
# [21] = biological target: Neu5Ac(a2-3)Gal(b1-4)GlcNAc(b1-3)Gal(b1-4)GlcNAc
# Procedure, shortened: as §1
# [22] = biological target: Neu5Ac(a2-3)Gal(b1-4)GlcNAc(b1-3)Gal(b1-4)GlcNAc(b1-2)Man(a1-3)[Neu5Ac(a2-3)Gal(b1-4)GlcNAc(b1-3)Gal(b1-4)GlcNAc(b1-2)Man(a1-6)]Man(b1-4)GlcNAc(b1-4)GlcNAc
# Procedure, shortened: as §1
# [23] = biological target: Neu5Ac(a2-3)Gal(b1-4)GlcNAc(b1-3)Gal(b1-4)GlcNAc(b1-3)Gal(b1-4)GlcNAc
# Procedure, shortened: as §1
# [24] = biological target: Neu5Ac(a2-3)Gal(b1-4)GlcNAc(b1-3)Gal(b1-4)GlcNAc(b1-3)Gal(b1-4)GlcNAc(b1-2)Man(a1-3)[Neu5Ac(a2-3)Gal(b1-4)GlcNAc(b1-3)Gal(b1-4)GlcNAc(b1-3)Gal(b1-4)GlcNAc(b1-2)Man(a1-6)]GalNAc
# Procedure, shortened: as §1
# [25] = biological target: Neu5Ac(a2-3)Gal(b1-4)GlcNAc(b1-3)Gal(b1-4)GlcNAc(b1-3)GalNAc
# Procedure, shortened: as §1
# [26] = biological target: Neu5Ac(a2-3)Gal(b1-4)GlcNAc(b1-3)Gal(b1-4)GlcNAc(b1-3)[Neu5Ac(a2-3)Gal(b1-4)GlcNAc(b1-3)Gal(b1-4)GlcNAc(b1-6)]GalNAc
# Procedure, shortened: as §1
# [27] = biological target: Neu5Ac(a2-3)Gal(b1-4)GlcNAc(b1-3)Gal(b1-4)GlcNAc(b1-6)[Gal(b1-3)]GalNAc
# Procedure, shortened: as §1
# [28] = biological target: Neu5Ac(a2-3)Gal(b1-4)GlcNAc(b1-3)Gal(b1-4)[Fuc(a1-3)]GlcNAc
# Procedure, shortened: as §1
# [29] = biological target: Neu5Ac(a2-3)Gal(b1-4)GlcNAc(b1-3)GalNAc
# Procedure, shortened: as §1
# [30] = biological target: Neu5Ac(a2-3)Gal(b1-4)GlcNAc(b1-3)[Neu5Ac(a2-3)Gal(b1-4)GlcNAc(b1-6)]GalNAc
# Procedure, shortened: as §1
# [31] = biological target: Neu5Ac(a2-3)Gal(b1-4)GlcNAc(b1-6)GalNAc
# Procedure, shortened: as §1
# [32] = biological target: Neu5Ac(a2-3)Gal(b1-4)GlcNAc(b1-6)[Gal(b1-3)]GalNAc
# Procedure, shortened: as §1
# [33] = biological target: Neu5Ac(a2-3)Gal(b1-4)GlcNAc(b1-6)[Neu5Ac(a2-3)Gal(b1-3)]GalNAc
# Procedure, shortened: as §1
# [34] = biological target: Neu5Ac(a2-3)Gal(b1-4)GlcNAc6S
# Procedure, shortened: as §1
# [35] = biological target: Neu5Ac(a2-3)Gal(b1-4)[Fuc(a1-3)]GlcNAc
# Procedure, shortened: as §1
# [36] = biological target: Neu5Ac(a2-3)Gal(b1-4)[Fuc(a1-3)]GlcNAc(b1-2)Man
# Procedure, shortened: as §1
# [37] = biological target: Neu5Ac(a2-3)Gal(b1-4)[Fuc(a1-3)]GlcNAc(b1-3)Gal
# Procedure, shortened: as §1
# [38] = biological target: Neu5Ac(a2-3)Gal(b1-4)[Fuc(a1-3)]GlcNAc(b1-3)Gal(b1-4)GlcNAc
# Procedure, shortened: as §1
# [39] = biological target: Neu5Ac(a2-3)Gal(b1-4)[Fuc(a1-3)]GlcNAc(b1-3)Gal(b1-4)[Fuc(a1-3)]GlcNAc(b1-3)Gal(b1-4)[Fuc(a1-3)]GlcNAc
# Procedure, shortened: as §1
# [40] = biological target: Neu5Ac(a2-3)Gal(b1-4)[Fuc(a1-3)]GlcNAc(b1-3)GalNAc
# Procedure, shortened: as §1
# [41] = biological target: Neu5Ac(a2-3)Gal(b1-4)[Fuc(a1-3)]GlcNAc(b1-6)[Gal(b1-3)]GalNAc
# Procedure, shortened: as §1
binder,measurement,setting,value
"NPA (Narcissus pseudonarcissus), C0HM45 (protein) DNILYSGETLSPGEFLNNGRYVFIMQEDCNLVLYDVDKPIWATNTGGLDRRCHLSMQSDGNLVVYSPRNNPIWASNTGGENGNYVCVLQKDRNVVIYGTARWATGTNIH",glycan array binding signal (z-score),[1],-0.046
same,glycan array binding signal (z-score),[2],-0.112
same,glycan array binding signal (z-score),[3],-0.14
same,glycan array binding signal (z-score),[4],-0.213
same,glycan array binding signal (z-score),[5],-0.138
same,glycan array binding signal (z-score),[6],-0.158
same,glycan array binding signal (z-score),[7],-0.145
same,glycan array binding signal (z-score),[8],-0.144
same,glycan array binding signal (z-score),[9],-0.154
same,glycan array binding signal (z-score),[10],-0.128
same,glycan array binding signal (z-score),[11],-0.15
same,glycan array binding signal (z-score),[12],-0.144
same,glycan array binding signal (z-score),[13],-0.151
same,glycan array binding signal (z-score),[14],-0.145
same,glycan array binding signal (z-score),[15],-0.155
same,glycan array binding signal (z-score),[16],-0.153
same,glycan array binding signal (z-score),[17],-0.086
same,glycan array binding signal (z-score),[18],-0.158
same,glycan array binding signal (z-score),[19],-0.164
same,glycan array binding signal (z-score),[20],-0.149
same,glycan array binding signal (z-score),[21],-0.143
same,glycan array binding signal (z-score),[22],-0.03
same,glycan array binding signal (z-score),[23],-0.151
same,glycan array binding signal (z-score),[24],0.14
same,glycan array binding signal (z-score),[25],-0.144
same,glycan array binding signal (z-score),[26],-0.123
same,glycan array binding signal (z-score),[27],-0.122
same,glycan array binding signal (z-score),[28],-0.159
same,glycan array binding signal (z-score),[29],-0.139
same,glycan array binding signal (z-score),[30],-0.15
same,glycan array binding signal (z-score),[31],-0.144
same,glycan array binding signal (z-score),[32],-0.146
same,glycan array binding signal (z-score),[33],-0.152
same,glycan array binding signal (z-score),[34],-0.154
same,glycan array binding signal (z-score),[35],-0.154
same,glycan array binding signal (z-score),[36],-0.152
same,glycan array binding signal (z-score),[37],-0.162
same,glycan array binding signal (z-score),[38],-0.15
same,glycan array binding signal (z-score),[39],-0.143
same,glycan array binding signal (z-score),[40],-0.089
same,glycan array binding signal (z-score),[41],-0.118
